Series [1] has as its system Nc1ncnc2c1ncn2[C@@H]1O[C@H](COP(=O)(O)OP(=O)(O)OP(=O)(O)O)[C@@H](O)[C@H]1O. Kind of series: Inhibition of human AXL (unknown origin) using EAIYAAPFAKKK peptide as substrate by nanoliter kinase assay.
Series [2] has the same test system. The series is described as follows: Inhibition of human c-Met using KKKSPGEYVNIEFG peptide as substrate by nanoliter kinase assay.

By Km is commonly meant the concentration of substrate that gives half-maximal velocity. For the substance “Tyrosine-protein kinase receptor UFO (Homo sapiens) (sequence not shown)”, in series [1], the Km was 100 µM.

Consider “Hepatocyte growth factor receptor (Homo sapiens) (sequence not shown)”, for which the Km in series [2] was found to be 10 µM.

The record behind these values is ChEMBL document CHEMBL3091431, “Aminopyridyl/Pyrazinyl Spiro[indoline-3,4'-piperidine]-2-ones As Highly Selective and Efficacious c-Met/ALK Inhibitors” (ACS Med Chem Lett, 2013).
